# Source: PubChem BioAssay AID2071 (Sanford-Burnham Center for Chemical Genomics, 2009)
# The other results are listed elsewhere or left out. These are further read-outs of the screen, such as a control signal, another cell line or another target. No call is given for them. Compounds called inactive in the main read-out are mostly missing here.
# Assay: NALP1 inflammasome inhibitors in reconstituted yeast, colorimetric, S. cerevisiae, triplicate retest (AID 2071)
# Details: S. cerevisiae NALP1/ASC/caspase-1 growth, X-gal OD620, 72 h, at 20 µM, stronger effect = higher value
row,SMILES,inhibition
1,O=C(c1ccccc1)C(CN1CCCC1)c1ccccc1 (stereo unspecified),110%
2,Fc1ccc(C(OCCN2CCCC2)c2ccc(Br)cc2)cc1 (stereo unspecified),54.9%
3,Nc1c2c(nc3sc4c(c13)CCCCC4)CCCC2,97.9%
4,CN1C2CCC1/C(=C/c1ccccn1)C(=O)/C2=C\c1ccccn1,99.4%
5,C[C@H]1C[C@@H](C)C(=O)[C@@H]([C@H](O)CC2CC(=O)NC(=O)C2)C1,112%
6,c1ccc2sc(NC3=NCCN3)nc2c1,116%
7,Cc1cccc(N2C(=O)NC(=O)/C(=C/c3ccc([N+](=O)[O-])o3)C2=O)c1,62.1%
8,CNC(=O)Oc1ccc2ncccc2c1,57.5%
9,CC1(C)C[C@H]2C=C(C=O)[C@]3(C=O)C[C@]3(C)[C@H]2C1,105%
10,CN1/C(=C\C=C\C2=[N+](C)c3ccc4ccccc4c3C2(C)C)C(C)(C)c2ccccc21,96.3%
11,CCCCN(Cc1ccccc1)C1CCN(CCc2ccccc2)CC1,50.5%
12,CN[C@H]1C[C@H]2O[C@@](C)([C@H]1OC)n1c3ccccc3c3c4c(c5c6ccccc6n2c5c31)C(=O)NC4,103%
13,CCOc1cc(CNCCc2c[nH]c3ccccc23)cc(Cl)c1OCC,103%
14,O=C1/C(=C/c2cc3c(cc2Cl)OCO3)N2CCC1CC2,54.4%
15,CC1CCCC(C)N1/N=C/c1c[nH]c2ccc(Br)cc12 (stereo unspecified),90.8%
16,Nc1c2c(nc3sc4c(c13)CCCC4)CCCCC2,60.8%
